EPA's CvTdb concentration-time database
This continues a long series; more values of the same kind are listed elsewhere.

Assays:
Assay in all cases: concentration in plasma after dosing
Rat [1] = conditions: 3 h; dosed: Perfluorohexane-1-sulphonic acid – potassium salt; 16 mg/kg; oral; Female; Harlan Sprague Dawley
Rat [2] = conditions: 528 h; dosed: Perfluorohexane-1-sulphonic acid – potassium salt; 16 mg/kg; oral; Female; F344
Rat [3] = conditions: 192 h; dosed: Perfluorohexane-1-sulphonic acid – potassium salt; 16 mg/kg; oral; Female; F344
Rat [4] = conditions: dosed: Perfluorohexane-1-sulphonic acid – potassium salt
Rat [5] = conditions: dosed: Perfluorohexane-1-sulphonic acid – potassium salt, 4 mg/kg, Female, F344
Rat [6] = conditions: dosed: Perfluorohexane-1-sulphonic acid – potassium salt, 4 mg/kg, Female, F344; remark: listed apart in the source
Rat [7] = conditions: 6 h; dosed: Perfluorohexane-1-sulphonic acid – potassium salt; 16 mg/kg; oral; Female; F344
Rat [8] = conditions: dosed: Perfluorohexane-1-sulphonic acid – potassium salt, 16 mg/kg, oral, Female, Harlan Sprague Dawley

O=S(=O)([O-])C(F)(F)C(F)(F)C(F)(F)C(F)(F)C(F)(F)C(F)(F)F.[K+] [Perfluorohexane-1-sulphonic acid – potassium salt]
Conditions	concentration in plasma [ng/mL]
Rat [1]	108000
Rat [2]	34900
Rat [3]	67100
Rat [7]	118000

concentration in plasma [ng/mL], Rat [4], 4 mg/kg, Female
Conditions	F344	Harlan Sprague Dawley
0.25 h	40000	–
1 h	38200	33200
3 h	32400	34700
5 min	68100	61100
6 h	31000	–
12 h	25000	–
24 h	30900	–
48 h	–	9110
96 h	–	4900
192 h	15200	–
528 h	11100	–
864 h	8140	–

concentration in plasma [ng/mL], Rat [4], oral
Conditions	4 mg/kg	16 mg/kg	32 mg/kg
0.25 h, Female, F344	9720	–	–
0.25 h, Female, Harlan Sprague Dawley	11100	45700	57100
0.25 h, Male, F344	–	17000	–
0.25 h, Male, Harlan Sprague Dawley	–	–	66200
1 h, Female, Harlan Sprague Dawley	20000	79800	132000
1 h, Male, F344	–	61100	–
1 h, Male, Harlan Sprague Dawley	–	–	96800
3 h, Female, F344	–	123000	–
3 h, Female, Harlan Sprague Dawley	21600	90600	–
3 h, Male, F344	–	–	156000
3 h, Male, Harlan Sprague Dawley	–	–	25700
6 h, Female, F344	23600	123000	–
6 h, Female, Harlan Sprague Dawley	–	95300	123000
6 h, Male, F344	22800	–	–
6 h, Male, Harlan Sprague Dawley	–	–	191000
12 h, Female, F344	24400	136000	–
12 h, Female, Harlan Sprague Dawley	26500	89500	106000
12 h, Male, Harlan Sprague Dawley	–	–	226000
24 h, Female, F344	–	116000	–
24 h, Female, Harlan Sprague Dawley	18800	58800	67800
24 h, Male, Harlan Sprague Dawley	–	–	180000
48 h, Female, Harlan Sprague Dawley	10900	39500	–
48 h, Male, F344	–	–	51500
96 h, Female, F344	9390	–	–
96 h, Female, Harlan Sprague Dawley	–	21400	24100
96 h, Male, F344	8540	–	–
192 h, Female, F344	3260	70400	–
192 h, Female, Harlan Sprague Dawley	3580	4950	2090
192 h, Male, Harlan Sprague Dawley	–	–	91100
288 h, Female, Harlan Sprague Dawley	576	963	821
528 h, Female, F344	–	39400	–
528 h, Female, Harlan Sprague Dawley	–	194	–
528 h, Male, F344	–	–	40.7
528 h, Male, Harlan Sprague Dawley	–	–	64400
864 h, Male, F344	–	12400	–
864 h, Male, Harlan Sprague Dawley	–	–	23800
1200 h, Male, Harlan Sprague Dawley	–	20800	19600

Conditions	concentration in plasma [ng/mL]
Rat [5], 0.5 h	51400
Rat [5], 24 h	16400
Rat [6], 3 h	27700
Rat [6], 96 h	4650
Rat [8], 1 h	74400
Rat [8], 528 h	61.1
